We go through 94 molecules from PubChem BioAssay AID485344 (National Center for Advancing Translational Sciences (NCATS), 2010).

Among all 340,000 compounds or so, about 6,900 (2%) were called active. Rule as the data show it: active = inhibition above about 30%; inactive = below that, where a call was filed. This is a selection; strong and weak results do not stand in their true shares. The source gives no active or inactive call for entries shown without one. Some compounds were tested as several samples or in several runs, with calls that do not always agree.

The experiment deals with D(2) dopamine receptor (Homo sapiens) (UniProt P14416). Put plainly: HTS Assay for Allosteric Antagonists of the Human D2 Dopamine Receptor: Primary Screen for Antagonists. Also: 0% is about no effect. To be noted: HEK293 TREx D2 cells, calcium flux, dopamine EC80; at 10 µM; stronger effect = higher value. Summed up: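 Tetracycline-induced HEK293 T-REx cells expressing D2 force-coupled to calcium signalling were dye-loaded, exposed to compound for 180 s, then challenged with an EC80 of dopamine; calcium flux was followed kinetically for a further 180 s.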
Sequence of UniProt P14416 (P14416 whole entry, looked up): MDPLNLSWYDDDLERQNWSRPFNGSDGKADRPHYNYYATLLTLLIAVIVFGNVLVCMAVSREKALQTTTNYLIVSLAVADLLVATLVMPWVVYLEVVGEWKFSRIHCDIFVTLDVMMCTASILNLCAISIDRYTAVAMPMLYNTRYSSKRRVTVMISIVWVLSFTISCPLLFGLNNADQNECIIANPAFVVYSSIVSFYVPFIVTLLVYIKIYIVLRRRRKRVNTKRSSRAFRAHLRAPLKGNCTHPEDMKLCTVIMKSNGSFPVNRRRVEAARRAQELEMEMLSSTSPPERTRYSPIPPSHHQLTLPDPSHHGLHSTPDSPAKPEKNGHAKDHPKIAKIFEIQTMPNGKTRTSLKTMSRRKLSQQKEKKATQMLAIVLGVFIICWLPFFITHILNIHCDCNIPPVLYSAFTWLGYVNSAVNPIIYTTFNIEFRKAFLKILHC
(In general: Calcium assays in cells follow changes in intracellular calcium, usually with a dye or a luminescent sensor.)
In general, inhibition refers to the change of the read-out against control, counted positive when it falls. With `Cc1ccnn1CC(=O)N/N=C/c1cn[nH]c1-c1ccccc1`, the inhibition is active: 43.9%.
As for `O=C(COc1ccccc1Cl)Nc1ccc2nc(SCC(=O)N3CCOCC3)sc2c1`, the figure is 7.12%; as for `Cc1ccc(NC(=O)CSc2nccn2-c2ccccc2)cc1`, -5.16%; as for `O=S(=O)(c1ccc2nc(Nc3ccc(Br)cc3F)ccc2c1)N1CCCCC1`, -5.23%.
The value for `COc1ccccc1C(=O)Nc1ccccc1C(=O)N1C(C)CCCC1C` (centres undefined) was active: 48.3%.
As for `CCSc1nc2sc3c(c2c(=O)n1-c1ccc(C)c(Cl)c1)CCN(C(C)=O)C3`, the figure is 2.42%.
For `COc1ccc(CCNC(=O)c2ccc3c(c2)CCN3S(=O)(=O)c2ccc(C)cc2)cc1OC`, the inhibition is 11.8%.
The value for `O=S(=O)(Nc1cccc(-c2ccc(N3CCOCC3)nn2)c1)c1ccc(F)c(C(F)(F)F)c1` was -23.9%; that for `OC(CN1CCN(c2ccccc2Cl)CC1)c1ccccc1` (centres undefined) was active: 86%.
As for `COc1ccc(-c2cc(C(F)(F)F)nc(SCC(=O)N(C)Cc3ccccc3)n2)cc1`, the figure is 8.64%; as for `COc1ccc(Cl)cc1NC(=O)NC(C)C(C)(C)C` (centres undefined), active: 34.2%; as for `Cn1nc(C(=O)NCc2ccccc2Cl)c2c1-c1ccccc1SC2`, 12.5%.
As for `Cc1oc(-c2ccccc2F)nc1CS(=O)(=O)CC(=O)NCCCN(C)C1CCCCC1`, the figure is active: 45.2%; as for `CCN(CC)c1nn2c(=O)c(C(=O)NCc3ccccc3Br)cnc2s1`, 9.21%; as for `COc1cc(OC)c2c(C)c(CC(=O)NCc3ccccc3OC)c(=O)oc2c1`, 14%.
Turning to `CCOc1ccc(NC(=O)N2CCN(C(=O)c3nsc4ccccc34)CC2)cc1`, the inhibition is -19.8%.
The value for `O=C(NCCc1ccc(Cl)cc1)c1cc2c(s1)-c1ccccc1OC2` was 4.54%; that for `COc1ccc(Cl)cc1NC(=O)CN(C)C(=O)c1cn(-c2ccccc2)nc1-c1cccnc1` was active: 44.3%; that for `Cc1cccc(NC(=O)c2ccc(Cn3nc(N4CCN(c5ccccc5)CC4)ccc3=O)o2)c1C` was -6.72%.
As for `COc1ccc(CCNC(=O)c2cc(=O)[nH]c3ccc(S(=O)(=O)N4CCCCC4)cc23)cc1OC`, the figure is -6.75%; as for `CCOc1ccc(NC(=O)C2CCC(CNS(=O)(=O)c3ccc4c(c3)CCCC(=O)N4)CC2)cc1` (centres undefined), 1.3%.
As for `CCN(c1cc(C)cc(C)c1)S(=O)(=O)c1nnc(NC(=O)c2ccccc2C)s1`, the figure is 6.65%; as for `Cc1ccc(N(CC(=O)N2CCN(c3cccc(C)c3C)CC2)S(=O)(=O)c2c(C)nn(C)c2C)cc1`, 5.69%.
For `CC(=O)Nc1c(C)nn(-c2ccccc2)c1N1CCC(C(=O)NCc2cccc(F)c2)CC1`, the inhibition was -1.59%.
The value for `CC(C)OCCCn1c(SCc2ccccc2Cl)nc2c(sc3ccccc32)c1=O` was 3.28%.
The value for `CCOc1ccc(NC(=O)CSc2cn(CC(=O)N3CCOCC3)c3ccccc23)cc1` was -1.63%; that for `CCC(Cc1ccccc1)NC(=O)c1cccc(Nc2nc3ccccc3nc2-n2nc(C)cc2C)c1` (centres undefined) was 10.7%.
The value for `COc1ccc(C(=O)NCc2ccc3c(c2)CCN3C(=O)c2ccc(Cl)cc2)c(OC)c1` was 8.86%; that for `COc1cc(OC)cc(C(=O)Nc2cccc(-c3cn4ccsc4n3)c2)c1` was -3.75%; that for `CCc1cccc(C)c1NC(=O)c1cc(S(=O)(=O)N2CCN(c3ccccc3)CC2)ccc1F` was -17.5%.
As to `CCOC(=O)c1cc2c(=O)n3ccccc3nc2n(C(C)C)c1=NC(=O)c1c(-c2c(F)cccc2Cl)noc1C`, the inhibition was -1.31%.
As for `Cc1cccc(CCNC(=O)CCc2c(C)nc3c(c(C)nn3-c3ccccc3)c2C)c1`, the figure is 6.73%; as for `COc1ccc2c(c1)CC(C(=O)Nc1cc(OC)c(OC)c(OC)c1)CO2` (centres undefined), 23.3%.
For the molecule `COc1ccc(Cl)cc1NC(=O)CCn1nc(C)cc1C`, the inhibition was -4.26%.
The value for `CN(C)c1ccc(C(=O)NCc2ccc3c(c2)CCN3C(=O)c2ccc(Cl)cc2)cc1` was -23.5%.
The value for `CN1C(=O)c2ccccc2Sc2ccc(NC(=O)N3CCN(c4cccc(Cl)c4)CC3)cc21` was 24.2%; that for `Clc1ccc(CNc2ncnc3onc(-c4ccc(Cl)cc4)c23)cc1` was 8.47%; that for `Cc1c(CN2CCCC(C(=O)Nc3cccc(-n4cccn4)c3)C2)cnn1C` (centres undefined) was active: 46.6%.
In the case of `Cc1ccc(C)c(N2CCN(S(=O)(=O)c3ccc4c(c3)n(C)c(=O)c(=O)n4C)CC2)c1`, the inhibition is -12.1%.
For the molecule `CCOC(=O)c1c(-c2ccccc2)csc1NC(=O)c1cc(-c2cccc(Cl)c2)on1`, the inhibition is -16%.
The value for `O=C(NCc1ccccc1)c1ccc(Cn2c(=O)c3cccn3c3cccnc32)cc1` was 22%; that for `CC(=O)c1cccc(NC(=O)c2ccc3c(c2)c(C)c(C)n3Cc2ccc(Cl)cc2)c1` was 16.1%; that for `COc1cc(OC)c(NC(=O)CSCc2nc(-c3ccc(OC)c(OC)c3)no2)cc1Cl` was -5.61%.
The value for `COCCCC/C(=N\OCCN)c1ccc(C(F)(F)F)cc1` was active: 53.9%; that for `CN(Cc1ccccc1)S(=O)(=O)c1ccc(F)c(C(=O)Nc2cc(Cl)cc(Cl)c2)c1` was -0.93%; that for `O=C(Nc1cc(-c2nc3cc(Cl)ccc3o2)ccc1Cl)c1cc2ccccc2o1` was -8.25%.
On to `CCn1cc(C(=O)NCCCOC(C)C)c(=O)c2cc(S(=O)(=O)N(C)C3CCCCC3)ccc21`, for which the inhibition amounted to 6.51%.
The value for `Cc1cccc(Nc2cc(C)nc3nc(Cc4ccc(Cl)cc4)nn23)c1` was -6.62%; that for `CCOC(=O)c1ccc(NC(=O)Cn2cc(S(=O)(=O)Cc3ccccc3F)c3ccccc32)cc1` was 10.2%; that for `O=C(NCCN1CCN(c2ccccc2)CC1)c1ccccc1F` was active: 72.2%.
As for `COc1ccc(CNC(=O)c2ccc3c(Cl)c4c(nc3c2)CCCC4)c(OC)c1`, the figure is 19.1%.
Consider `Cc1nc(SCC(=O)Nc2ccc(Cl)cc2C(F)(F)F)[nH]c(=O)c1Cc1ccccc1`, for which the inhibition was -3.79%.
For `COc1ccccc1CCNC(=O)C(=O)NCC1OCCCN1S(=O)(=O)c1cc(C)ccc1C` (centres undefined), the inhibition is active: 33.9%.
As for `Cc1ccc(Cn2cc3c(n2)-c2c(oc(C(=O)Nc4ccc(F)cc4F)c2C)CC3)cc1`, the figure is -5.17%; as for `CCOc1ccccc1CNC(=O)c1ccc2nc(CCc3ccccc3)oc2c1`, 13.7%; as for `CCc1nn2c(=O)cc(COC(=O)c3cccs3)nc2s1`, 11%.
As to `CCOc1ccccc1NC(=O)CN1Cc2ccccc2C1=O`, the inhibition is -1.39%.
The value for `COC(=O)c1ccc(CN(Cc2ccc(OC)c(OC)c2)S(=O)(=O)c2ccc(F)c(C(=O)Nc3cc(C)ccc3C)c2)cc1` was -4.11%; that for `Cc1cccc(C(=O)NCC(=O)OCc2cc(=O)n3nc(C)sc3n2)c1` was 4.85%; that for `CC(Oc1ccccc1)C(=O)Nc1ccc(C(=O)OCc2cc(=O)n3ccsc3n2)cc1` (centres undefined) was -1.98%.
As for `N#Cc1nc(/C=C/c2ccc(F)cc2)oc1N1CCCCC1`, the figure is 13.9%.
The value for `COc1ccc(N(C(=O)c2ccccc2OC(C)=O)C(C)C2CC2)cc1` (centres undefined) was active: 30.5%.
As to `CCOc1ccc(C(c2c(C)[nH]n(-c3ccccc3)c2=O)c2c(C)[nH]n(-c3ccccc3)c2=O)cc1OC`, the inhibition was -3.33%.
The value for `CCN(CC)CCNC(=O)c1ccc2c(=O)n3nc(Nc4cccc(Cl)c4C)sc3nc2c1` was 0.73%; that for `COc1ccc(-c2nsc(NC(=O)c3cccc(OC)c3)n2)cc1` was -20.7%.
As to `CCc1ccc(-c2cn3c(n2)sc2cc(C(=O)NCCCc4ccccc4)ccc23)cc1`, the inhibition came to 13.6%.
The value for `CCOc1cccc2cc(-c3nc(-c4ccc(Cl)cc4)c(C)s3)c(=O)oc12` was 2.34%; that for `CCCn1c(N)c(N(CCOC)C(=O)c2ccccc2)c(=O)[nH]c1=O` was active: 55.4%; that for `O=C(CSc1n[nH]c(-c2ccc(S(=O)(=O)N3CCCCC3)cc2)n1)Nc1nccs1` was active: 39.2%.
As to `COc1ccc(-c2ccc(NS(=O)(=O)c3ccccc3Cl)cc2)nn1`, the inhibition is -9.3%.
As for `COc1ccc(Cn2c(CCC(=O)Nc3cccc(Cl)c3)nc3cccnc32)cc1`, the inhibition came to 15.5%.
The value for `Cc1nc(N2CCOCC2)c2c(C(=O)N3CCN(c4ccc(Cl)cc4)CC3)c(C)oc2n1` was -4.79%.
`O=C(Cn1c(=O)oc2cc(S(=O)(=O)N3CCCC3)ccc21)Nc1ccc(OC(F)(F)F)cc1`: the inhibition was -4.5%.
The value for `Cc1ccc(NC(=O)C2CCC(CNS(=O)(=O)c3cccc4nsnc34)CC2)c(C)c1` (centres undefined) was 1.52%; that for `Cc1ccc(C)c(Cn2c(C(C)NC(=O)c3ccccc3)nc3ccccc32)c1` (centres undefined) was 1.63%; that for `Cc1nc2ccc(S(=O)(=O)N(CC(=O)Nc3cccc(C)c3C)Cc3ccccc3)cc2s1` was 3.72%.
For `COc1cccc(OCc2nc3ccccc3n2C)c1`, the inhibition is -6.53%.
The value for `O=C(CCn1cnc2onc(-c3ccc(F)cc3)c2c1=O)N1CCN(c2ccccc2)CC1` was -14.8%; that for `O=C(NCc1noc2ccccc12)N1CCN(c2ccccc2F)CC1` was -9.35%.
As for `O=C(CSC1=Nc2ccccc2C2=NC(Cc3ccccc3)C(=O)N12)Nc1ccccc1` (centres undefined), the figure is 11.1%; as for `O=C(NNC1=Nc2ccccc2SC1)c1cccc([N+](=O)[O-])c1`, active: 70.7%; as for `COc1ccc(NC(=O)CCN2C(=O)c3ccncc3C2=O)cc1OC`, active: 33.9%.
As for `O=C(Nc1cccc(-c2nc3cc(Cl)ccc3o2)c1)c1ccc(F)cc1`, the figure is -3.65%; as for `Cc1nn(Cc2ccc(Cl)cc2)c2sc(C(=O)O)cc12`, active: 31.6%.
With `O=C(Cn1c(=O)n(Cc2ccc(F)cc2)c(=O)c2sc3ccccc3c21)NCc1ccccc1`, the inhibition is -6.12%.
As to `Cc1ccc(OCCSc2nc3ccccc3n2CC(=O)N2CCCCC2)c(C)c1`, the inhibition is -8.89%.
As for `CCCS(=O)(=O)N1CC(=O)N(c2ccccc2C)C(C)(C(=O)NC2CCCCC2)C1` (centres undefined), the figure is -7.23%.
Take `CC(C)OCCCn1c(=O)c2ccccc2n2c(-c3ccc(F)c(F)c3)nnc12`: the inhibition turned out to be 8.39%.
The value for `Cc1ccc(S(=O)(=O)c2nnn3c2nc(NCc2ccc(F)cc2)c2sccc23)cc1C` was -3.48%.
The value for `CCC1CN(C(=O)N2CCC(C(=O)NCc3ccc(C)o3)CC2)c2ccccc2O1` (centres undefined) was -1.68%.
Take `Cc1nn(-c2ccc(N3CCCC3)nn2)c(C)c1CCC(=O)NCc1ccc(F)cc1`: the inhibition stood at 15.1%.
The value for `COc1ccc(Nc2cc(C(=O)NCc3ccccc3)c3ccccc3n2)cc1` was 1.08%; that for `CCc1ccc(OCC(=O)Nc2ccc(Cl)c(-c3nc4cc(C)cc(C)c4o3)c2)cc1` was 13.5%; that for `Cc1ccc(Cl)cc1N1CCN(S(=O)(=O)c2ccc3oc(=O)c4ncn(C)c4c3c2)CC1` was 11.9%.
